Molecules are shown by their SMILES.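 Plates (96-well) were seeded with cells, treated with compound at one concentration, and incubated for 48 hours before percent growth was determined.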 For part of its entries the source gives two or more results. They are shown here; other results are not. An entry can have further records. This drug was run again and again over the years, at its own concentration, as given; one value stands for one run. Brackets with × give the number of equal values in this list.

This experiment has as its system LXFL 529 NSCLC. The experiment can be described thus: NCI-60 one-dose screen, 48 h (100 = growth as untreated, 0 = no growth, -100 = all killed). The note with it: 2.5 mM. Here is the method:
Growth inhibition of the LXFL 529 human Non-Small Cell Lung tumor cell line is measured as a screen for anti-cancer activity. Cells are grown in 96 well plates and exposed to the test compound for 48 hours. Compounds are tested at a single concentration, which is 10^-5 M for most compounds. The reported endpoint is percent growth (GI% or GIPRCNT), where numbers from 0 - 100% represent growth inhibition, and numbers from -100% - 0 represent cell death. For example, a value of 40 represents 60% growth inhibition. A value of 0 means no net growth occurred over the course of the experiment. A value of -40 indicates 40% of cells at the beginning of the experiment died by the end of the experiment. A value of -100 means all cells are dead at the end of the experiment.
NCI-60 Human Tumor Cell Lines Screen was performed using the standard one-dose NCI protocol, which is described in more detail at https://dtp.cancer.gov/discovery_development/nci-60/default.htm.
Compounds with GIPRCNT values below 10 were considered active. Activity score was based on GIPRCNT using the following formula: […]
Score is 0 for GIPRCNT values of 100 or above, 50 for GIPRCNT values of 0, and 100 for GIPRCNT values of -100.

Take `O=c1[nH]cc(F)c(=O)[nH]1`: the growth is 32.3, 29.8, 23.1, 31.8, 28.7, 26.5, 23.3, 36.5, 21.8, 28.6, 29.6% (runs of 1991) and 33.8, 31.9 (2×), 32.4, 34.4, 32.3 (2×), 28.9, 31.8, 30.7, 30, 21.4 (2×), 20.8, 15.2, 22.2, 13.1, 39.4, 16.6, 25.1, 25.9, 27.6, 31.5, 38.4, 33.5, 22.1 (2×), 29.4, 30.4, 2.5, 22.9, 10.8, 30.1, 27.3 (2×), 22.8, 31.7, 33.3, 24.4 (2×), 34.2, 13.8, 27.7 (2×), 26.9, 23.8, 28.2, 33.7, 27.2, 26.3, 29.5, 28.5, 28.7, 26.7, 27.4, 26.8 (2×), 16.5, 19.7, 31.4, 23.4, 29.7, 28.1, 37.5, 28.8 (2×), 21.1, 32.2, 28.6, 35.2, 23.9, 23.1, 23.5, 33.4 (3×), 32.8, 31, 29.3, 35.9, 26.2, 33.6, 33, 24.7, 29.9, 35.7, 38.2, 32.9, 28.4% (runs of 1992).

Values taken from PubChem BioAssay AID1794737 (DTP/NCI, 2022).
